# According to the supplement of paper PMC3334620:
# Over roughly 33,000 sequences, “E-score (-0.5 to 0.5)” has its median near -0.016; the highest 2% begin near 0.32. The list shows a part of the results.
# Molecular target: T1, Stp1 (UniProt B3LFK1)
# T1 sequence: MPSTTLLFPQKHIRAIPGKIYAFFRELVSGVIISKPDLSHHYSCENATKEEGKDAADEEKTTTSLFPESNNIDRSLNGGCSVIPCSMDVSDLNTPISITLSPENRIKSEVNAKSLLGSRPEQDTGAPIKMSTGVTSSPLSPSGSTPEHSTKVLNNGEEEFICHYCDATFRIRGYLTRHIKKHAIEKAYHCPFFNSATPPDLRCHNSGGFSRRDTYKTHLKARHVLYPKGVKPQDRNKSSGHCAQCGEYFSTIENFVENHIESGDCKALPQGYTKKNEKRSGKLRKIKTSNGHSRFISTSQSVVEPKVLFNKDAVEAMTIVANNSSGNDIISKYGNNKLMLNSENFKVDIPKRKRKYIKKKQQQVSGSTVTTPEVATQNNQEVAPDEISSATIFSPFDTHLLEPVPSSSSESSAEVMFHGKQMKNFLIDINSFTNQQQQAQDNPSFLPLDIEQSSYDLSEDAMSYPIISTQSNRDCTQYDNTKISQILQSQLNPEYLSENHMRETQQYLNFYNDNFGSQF
# Test: PBM E-score (8-mer binding enrichment) (E-score (-0.5 to 0.5)); higher = stronger / more preferred TF binding; most listed sequences are background and not binding sites
# Settings: protein concentration: 200 nM; construct: GST-full length
# Method in brief: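 For each ungapped eight-base word taken together with its reverse complement, the Universal PBM Analysis Suite assigned an E-score. Binding data came from GST-tagged yeast transcription factors, applied at about 100-200 nM, on universal all-10-mer Agilent arrays made double-stranded by primer extension. Fluorescent anti-GST marked bound protein, and scans were normalised with masliner.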
row,Sequence,PBM E-score
1,GGCAGCTA,0.047
2,GTGCATCA,0.0717
3,AAGGCAGG,-0.236
4,AACGTGAG,-0.0998
5,AGCGGTAT,0.101
6,AATATTCT,-0.0438
7,CAGAACTG,0.197
8,CGGACCCA,-0.0338
9,CAGCCAAC,-0.242
10,CTATATAA,0.00322
11,ATTCCTAG,-0.0362
12,ACGGCTTG,0.335
13,CGGTGTGC,-0.132
14,TATCTGGA,-0.199
15,ACTTCTAC,0.0115
16,AGCGTGTC,-0.251
17,CGCCGACA,0.13
18,CACGCCGC,0.417
19,ACTGTACA,-0.116
20,TAAAAAAA,0.146
21,GGTTGAGA,-0.0845
22,CTATATGA,0.0978
23,TCCTGACA,0.012
24,ACCAGGAT,-0.0689

row,Sequence,PBM E-score
1,CCTCCGGC,-0.192
2,ACACCAAT,0.0311
3,CAATAAGG,0.0114
4,GCAATTAC,0.256
5,TAATCAAA,0.13
6,AAACCTAT,0.00219
7,ATGGCGGC,0.158
8,ACTGACCA,-0.304
9,AAACCAAC,0.0618
10,ATTATAGG,-0.0155
11,ATCGTATA,0.177
12,AATTACAC,-0.00481
13,CAAGTGCA,-0.129
14,GCAGATCA,-0.293
15,CCTCTACG,-0.0807
16,ATGTAGGC,-0.0572
17,ATACATTG,0.0644
18,TCGCACAA,0.0629
19,AGGCGGAA,0.0802
20,GGGCGGTA,-0.128
21,AGGCAACA,0.143
22,AACGTGCG,0.0982
23,ATAAGTGG,0.137
24,CGCACCAC,0.063

row,Sequence,PBM E-score
1,CTACTTCA,-0.0708
2,TCGCTGAA,0.0632
3,CACCTTCG,-0.0864
4,GGGTATAC,-0.208
5,GCGGACTA,-0.0967
6,CGAATTAG,0.0626
7,ACTCAGCG,-0.167
8,GGGCAAGA,0.0452
9,AGCATGAA,-0.118
10,ATGACCTC,-0.209
11,AATGGTCT,-0.0756
12,CTCGCATC,-0.0189
13,ACTATGCG,0.133
14,CACGGCTC,0.469
15,GCGTACAA,0.167
16,CCGTTTAC,0.235
17,CATGTACA,-0.041
18,CTATGTTA,0.153
19,CTTCAGAC,-0.00198
20,GATTAGAA,-0.0377
21,AAGATTGT,0.0815
22,ATTACTCC,0.0765
23,GTAGCCAC,-0.0824
24,GATGATGA,-0.171

row,Sequence,PBM E-score
1,CAACGTCC,-0.276
2,AAGATTTG,-0.0479
3,CCGTGACG,0.109
4,AATTGGCG,0.0797
5,AGGGGAAA,-0.223
6,AACTGCGC,-0.0192
7,GTCAAATA,0.0762
8,GCGGCTTA,0.234
9,CTTATATA,0.26
10,CGCACTTC,-0.0865
11,AAATTACA,0.0556
12,CCTCGTTA,0.0299
13,CTATTTGC,-0.0276
14,CAACTAGA,0.0664
15,AAGATATC,0.0695
16,GAGTAGGA,-0.242
17,CTCCAAAA,-0.0218
18,CTTACCTA,-0.166
19,GACTCGAC,-0.0794
20,CAAGCACC,-0.194
21,AGTGCGCC,0.297
22,TCGATTAA,0.191
